Laboratory results published in PubChem BioAssay AID1745853 (National Center for Advancing Translational Sciences (NCATS), 2022).
Several values for one entry are separate records, joined by “and”; a condition that tells them apart may be missing. Equal values may be shown once. The list shows a part of the results. Further columns of the screen follow, without active or inactive calls.

Key:
Experiment in all cases: Primary Screen for Target Class Profiling of Small Molecule Inhibitors of Methyltransferases
[1] = molecular target: Glycine N-methyltransferase (Homo sapiens) (UniProt Q14749); settings: purified enzyme, MTase-Glo SAH luminescence; measured here: GNMT inhibition; at 40 µM; stronger effect = lower value
Outline: (§1)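 Each enzyme was assayed with SAM and its substrate. SAH formation detected by MTase-Glo luminescence; single-point 40 uM screen[…].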

[2] = molecular target: Guanidinoacetate N-methyltransferase (Homo sapiens) (UniProt Q14353); settings: purified enzyme, MTase-Glo SAH luminescence; measured here: GAMT inhibition; at 40 µM; stronger effect = lower value
Outline: as §1

[3] = molecular target: Histamine N-methyltransferase (Homo sapiens) (UniProt P50135); settings: purified enzyme, MTase-Glo SAH luminescence; measured here: HNMT inhibition; at 40 µM; stronger effect = lower value
Outline: as §1

[4] = molecular target: Nicotinamide N-methyltransferase (Homo sapiens) (UniProt P40261); settings: purified enzyme, MTase-Glo SAH luminescence; measured here: NNMT inhibition; at 40 µM; stronger effect = lower value
Outline: as §1

[5] = molecular target: Phenylethanolamine N-methyltransferase (Homo sapiens) (UniProt P11086); settings: purified enzyme, MTase-Glo SAH luminescence; measured here: PNMT inhibition; at 40 µM; stronger effect = lower value
Outline: as §1
% is scaled to controls: 0 for no effect and ±100 for the full control effect.

SMILES	activity change, negative = inhibition [1]	activity change, negative = inhibition [2]	activity change, negative = inhibition [3]	activity change, negative = inhibition [4]	activity change, negative = inhibition [5]
CCC1CCCCN1C(=O)Cn1c(=O)oc2cc(S(=O)(=O)N3CC(C)CC(C)C3)ccc21 (configuration not stated)	3.58%	0%	9.55%	-6.67%	-4.03%
CCCNC(=O)CCn1ccc2cc(S(=O)(=O)N3CCCCC3)ccc21	2.43%	0%	5.53%	7.8%	1.07%
COc1ccc(-c2cc(C[C@H]3CNCC[C@H]3CC(=O)N3CCOCC3)no2)cc1	1.52%	-0.154%	1.38%	-0.637%	2.63%
CC(=O)Nc1c2n(c3ccccc13)CC(C)(C(=O)NC1CCCCC1)N(C1CCC(C)CC1)C2=O (configuration not stated)	2.19%	-0.44%	-3.4%	-6.29%	1.05%
O=C(c1ccc(/C=C/c2n[nH]c3ccccc23)cc1)N1CCNCC1	-6.88%	-4.74%	3.74%	-18.7%	-46.1%
O=C(Cn1ccc2cc(S(=O)(=O)N3CCCC3)ccc21)NCc1ccc(Cl)cc1	5.31%	0.405%	3.16%	2.44%	1.43%
CCS(=O)(=O)Nc1ccc(C(=O)NCc2cc3n(n2)CCNC3)cc1	-4.54%	-9.2%	-2.21%	-13.3%	-10%
Cc1nc(C2CC(O)C2)cc(N2CCN(c3cnn(C)c(=O)c3)CC2)n1 (configuration not stated)	-3.98%	-2.15%	0.165%	-7.29%	0.269%
COc1cc(F)ccc1-c1cc(-c2ccc(=O)[nH]c2)c2cncn2c1	-88.5%	-86.8%	-36.6%	-49.6%	-45.8%
COc1ccc(CCN2C(=O)c3cc4occc4n3CC2(C)C(=O)NC2CCC(C)CC2)cc1OC (configuration not stated)	-4.64%	-1.23%	-2.47%	-28.8%	-9.48%
COc1cccc(OC)c1-c1cc(C(=O)N[C@@H](CC(C)C)C(=O)O)nn1-c1ccnc2cc(Cl)ccc12	-4.48%	4.99%	11.3%	-24.9%	3.16%
COc1ccc([C@@]2(O)c3c(ccc4c3OC(C)(CCC=C(C)C)C=C4)NC(=O)[C@@H]2OC)cc1 (some centres not stated)	-1.01%	-2.65%	5.93%	-18.2%	-5.55%
CCCNC(=O)NCC1c2cc(OC)c(OC)cc2CCN1C(=O)NCC (configuration not stated)	-2.64%	-5.92%	-1.8%	-9.02%	-4.92%
O=C(c1c(OCC2CC2)cc(=O)n2c1CCOCC2)N1CCc2ccccc2C1	-6.08%	-8.53%	-3.56%	-16.2%	0.706%
COc1cccc(C(=O)Cn2nc3n(Cc4ccccc4)c(=O)c4ccccc4n3c2=O)c1	3.69%	0%	8.22%	3.88%	4.23%
CN(C)[C@@H]1CO[C@H](CNC(=O)c2ccncc2)[C@H]1O	-2.08%	-3.56%	1.72%	0.775%	1.89%
COCC1CN(C)CC12CCN(Cc1sccc1C)CC2 (configuration not stated)	-5.38%	-5.54%	-5.6%	-7.37%	-0.967%
Cn1nc(C(C)(C)C)cc1C(=O)NC(Cc1cccc(Cl)c1)C(=O)NCC#N (configuration not stated)	5.67%		4.02%		
C[C@@H]1O[C@@H](O[C@H]2[C@H](O[C@H]3CO[C@@H](O[C@H]4CC[C@@]5(C)C(CC[C@]6(C)C5CC[C@]57OC[C@@]8(CC[C@](C)(CO)CC85)[C@H](O)C[C@]76C)C4(C)C)[C@H](O[C@@H]4O[C@H](CO)[C@@H](O)[C@H](O)[C@H]4O)[C@H]3O)O[C@H](CO)[C@@H](O)[C@@H]2O)[C@H](O)[C@H](O)[C@H]1O (some centres not stated)	-0.801%	-5.14%	-5.05%	-18.3%	2.38%
CCc1cc2c(cc3n2CC(C)(C(=O)NC2CCCCCC2)N(c2cc(C)ccc2C)C3=O)s1 (configuration not stated)	4.18%	0%	1.21%	9.75%	3.26%
Cc1cc(Cl)ccc1OCCCC(=O)NO	-12% and -4.46%	1.67%	-2.42% and 4.06%	-9.91% and 7.71%	1.96% and 30%
CCOc1ccc(CCNC(=O)c2cc3n(n2)CC(C)(C(=O)NC2CCCC2)N(C)C3=O)cc1 (configuration not stated)	2.09%	1.76%	6.13%	4.73%	0.633%
CN(C)S(=O)(=O)N1CCCC(c2nc(-c3ccccc3)no2)CCNC(=O)CC1 (configuration not stated)	-5.99%	-9.07%	-4.39%	-16.3%	-10.3%
CN(CCCN1C(=O)c2ccc(-c3ccco3)n2CC1(C)C(=O)NC1CCCC1)C1CCCCC1 (configuration not stated)	3.04%	0.456%	-2.75%	5.14%	3.22%
O=C(NCCN1CCOCC1)c1ccc(Cl)cc1	-0.973%	10.5%	7.69%	-5.17%	5.59%
C=CC(C)(O)CC/C=C(\C)C(=O)OC1C(O)C(CO)OC(OC(=O)C23CCC(C)(C)CC2C2=CCC4C5(C)CCC(OC6OC(COC7OCC(OC(C)=O)C(O)C7OC7OC(COC(C)=O)C(O)C(O)C7OC(C)=O)C(O)C(O)C6OC6OCC(O)C(O)C6O)C(C)(C)C5CCC4(C)C2(C)C(O)C3O)C1OC1OCC(OC2OCC(O)C(OC3OCC(O)C(O)C3O)C2O)C(O)C1O (configuration not stated)	0%	20.7%	8.64%	7.86%	4.84%
CC1CCC(NC(=O)C2(C)Cn3c(ccc3-c3ccco3)C(=O)N2Cc2ccccn2)CC1 (configuration not stated)	-5.39%	0%	7.02%	3.19%	4.02%
CCC1c2ccc(C)n2CCN1C(=O)Nc1ccccc1F (configuration not stated)	4.08%	10.4%	1.77%	-5.26%	1.33%
